Measured values from PubChem BioAssay (NCI).
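Test compounds were applied to cells in 96-well plates for 48 hours at 5 doses. GI50: concentration for 50% inhibition of growth.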 A number of entries come with more than one value. The list is limited to them. There may be further records. The tests behind the records often covered other concentration ranges, not given here; some values may only mark the edge of a range. Marks in square brackets tell the records apart. A, B and so on number the origins entry by entry.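 TGI denotes the concentration required for complete inhibition of growth.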

Legend:
Assay in all cases: DTP human tumour cell line panel, 48 h
[1] = tested on: RPMI-8226 leukemia
[2] = tested on: A498 renal
[3] = tested on: HCT-15 colon
[4] = tested on: SNB-19 CNS
[5] = tested on: MDA-N
[6] = tested on: MOLT-4 leukemia
[7] = tested on: MDA-MB-231 breast
[8] = tested on: LOX IMVI melanoma
[9] = tested on: SR leukemia
[10] = tested on: HT29 colon
[11] = tested on: NCI-H226 lung
[12] = tested on: MDA-MB-435
[13] = tested on: HCC-2998 colon
[14] = tested on: IGROV1 ovarian
[15] = tested on: SK-MEL-28 melanoma
[16] = tested on: NCI-H522 lung
[17] = tested on: RXF 393 renal
[18] = tested on: HCT-116 colon
[19] = tested on: M14 melanoma
[20] = tested on: UACC-257 melanoma
[21] = tested on: UO-31 renal
[22] = tested on: CCRF-CEM leukemia
[23] = tested on: NCI-H23 lung
[24] = tested on: HS 578T breast
[25] = tested on: U251 CNS
[26] = tested on: SF-539 CNS
[27] = tested on: SF-268 CNS
[28] = tested on: EKVX NSCLC
[29] = tested on: KM12 colon
[30] = tested on: UACC-62 melanoma
[31] = tested on: HOP-92 NSCLC
[32] = tested on: HL-60(TB) leukemia
[33] = tested on: CAKI-1 renal
[34] = tested on: OVCAR-5 ovarian
[35] = tested on: OVCAR-3 ovarian
[36] = tested on: NCI-H460 lung
[37] = tested on: MALME-3M melanoma
[38] = tested on: SN12C renal
[39] = tested on: MCF7 breast

With `COC1=C(C)C(=O)C2=C(C1=O)C(CO)N1C(C#N)C3CC4C(C1C2N1CCOC41)N3C` (stereo not drawn) the TGI [1] was 28.1 nM [1 test] and 369 nM [mean of 3 tests], the GI50 [2] was 3 nM [1 test] and 1.37 µM [mean of 2 tests] and the TGI [2] was 19.9 nM, 425 nM, 3.5 µM. The TGI [3] was 19.2 nM, 349 nM, 1.18 µM [sample A] and 1.94 µM [sample B], the GI50 [4] was 13.1 nM [sample A, 1 test] and 61.8 nM [sample A, mean of 2 tests] and 153 nM [sample A, mean of 5 tests] and < 20.7 nM [sample B, mean of 2 tests] and the GI50 [5] was 3.15 nM, 55.2 nM [sample A, 1 test] and < 17.9 nM [sample B, mean of 2 tests]. The GI50 [6] was 0.513 nM [1 test] and 11.4 nM [mean of 4 tests], the TGI [6] was 3.13 nM, 68.3 nM, 185 nM and the GI50 [7] was 2.82 nM, 54.2 nM [sample A, 1 test] and < 10 nM [sample B, 1 test]. The TGI [8] was 19.6 nM, 124 nM, 89.6 nM [sample A] and 82.6 nM [sample B], the TGI [9] was 4.96 nM [sample A, 1 test] and 577 nM [sample A, mean of 4 tests] and 19.9 µM [sample B, 1 test] and the GI50 [10] was 2.47 nM [1 test] and 24.6 nM [mean of 2 tests] and 27.6 nM [mean of 4 tests]. The GI50 [11] was 2.04 nM [1 test] and 37.6 nM [mean of 2 tests], the TGI [11] was 4.81 nM, 265 nM, 163 nM [sample A] and 273 nM [sample B] and the GI50 [12] was 2.57 nM, 59.6 nM [sample A, 1 test] and 31.8 nM [sample B, 1 test]. For the same molecule, the TGI [12] was 7.2 nM and 286 nM, the TGI [13] was 13.8 nM, 263 nM, 159 nM [sample A] and 181 nM [sample B] and the TGI [14] was 4.74 µM, 450 nM [sample A] and 10.7 µM [sample B]. The GI50 [15] was 2.7 nM [1 test] and 28.5 nM [mean of 2 tests], the TGI [15] was 14.6 nM, 260 nM, 88.9 nM [sample A] and 3.2 µM [sample B] and the GI50 [16] was 0.445 nM [sample A, 1 test] and 2.54 nM [sample A, mean of 3 tests] and 20.4 nM [sample B, 1 test]. For the same molecule, the TGI [16] was 2.78 nM [sample A, 1 test] and 9.68 nM [sample A, mean of 3 tests] and 69.1 nM [sample B, 1 test], the TGI [17] was 5.01 nM, 65.3 nM, 43.2 nM [sample A] and 59.3 nM [sample B] and the GI50 [18] was 2.36 nM [sample A, 1 test] and 48.5 nM [sample A, mean of 2 tests] and 50.1 nM [sample A, mean of 3 tests] and < 13.4 nM [sample B, mean of 2 tests]. For the same molecule, the TGI [18] was 248 nM [mean of 2 tests] and 5.06 µM [mean of 3 tests], the GI50 [19] was 2.87 nM [sample A, 1 test] and 49.1 nM [sample A, mean of 5 tests] and < 11.2 nM [sample B, mean of 2 tests] and the TGI [19] was 12.8 nM [sample A, 1 test] and 149 nM [sample A, mean of 5 tests] and < 25.2 nM [sample B, mean of 2 tests]. For the same molecule, the TGI [20] was 5.49 nM, 82.1 nM, 42.9 nM [sample A] and 65.5 nM [sample B], the GI50 [21] was 1.87 nM [sample A, 1 test] and 27.1 nM [sample A, mean of 2 tests] and 84.7 nM [sample A, mean of 5 tests] and 27.9 nM [sample B, mean of 2 tests] and the TGI [21] was 5.7 nM [sample A, 1 test] and 136 nM [sample A, mean of 2 tests] and 327 nM [sample A, mean of 5 tests] and 103 nM [sample B, mean of 2 tests]. For the same molecule, the GI50 [22] was 0.664 nM [sample A, 1 test] and 29.7 nM [sample A, mean of 4 tests] and < 10 nM [sample B, 1 test], the TGI [22] was 6.77 nM, 150 nM [sample A, 1 test] and 294 nM [sample A, mean of 4 tests] and 126 nM [sample B, 1 test] and the TGI [23] was 4.28 nM, 165 nM, 35.7 nM. For the same molecule, the GI50 [24] was 3.43 nM, 135 nM [sample A, 1 test] and 51.5 nM [sample B, 1 test], the TGI [24] was 35.5 nM, 491 nM [sample A, 1 test] and 525 nM [sample B, 1 test] and the GI50 [25] was 2.15 nM, 259 nM [sample A, 1 test] and 101 nM [sample A, mean of 5 tests] and 50.1 nM [sample B, 1 test]. For the same molecule, the TGI [25] was 10.3 µM [sample A, 1 test] and 4.79 µM [sample A, mean of 5 tests] and > 100 µM [sample B, 1 test], the GI50 [26] was 5.33 nM [sample A, 1 test] and 32.9 nM [sample A, mean of 2 tests] and 58.8 nM [sample A, mean of 5 tests] and 207 nM [sample B, 1 test] and the TGI [26] was 27.1 nM [sample A, 1 test] and 102 nM [sample A, mean of 2 tests] and 157 nM [sample A, mean of 5 tests] and 407 nM [sample B, 1 test]. For the same molecule, the GI50 [27] was 3.62 nM [1 test] and 40.7 nM [mean of 2 tests], the TGI [28] was 30.5 nM, 2.11 µM, 56.3 nM [sample A] and 829 nM [sample B] and the TGI [29] was 42.1 nM, 468 nM, 113 nM [sample A] and 2.4 µM [sample B]. The GI50 [30] was 1.71 nM [sample A, 1 test] and 17 nM [sample A, mean of 2 tests] and 45.2 nM [sample A, mean of 4 tests] and 14.5 nM [sample B, 1 test], the TGI [30] was 3.56 nM [sample A, 1 test] and 37.5 nM [sample A, mean of 2 tests] and 129 nM [sample A, mean of 4 tests] and 58.6 nM [sample B, 1 test] and the TGI [31] was 7.92 nM, 94.1 nM [sample A] and 65.8 nM [sample B]. For the same molecule, the TGI [32] was 0.488 nM, 150 nM [sample A] and 13.7 nM [sample B], the GI50 [33] was 0.871 nM [sample A, 1 test] and 12.2 nM [sample A, mean of 5 tests] and 29.1 nM [sample B, 1 test] and the TGI [33] was 1.82 µM [sample A, 1 test] and 990 nM [sample A, mean of 5 tests] and 13.5 µM [sample B, 1 test]. The GI50 [34] was 13.3 nM and 165 nM, the GI50 [35] was 3.23 nM [sample A, 1 test] and < 15 nM [sample A, mean of 2 tests] and 24.1 nM [sample A, mean of 5 tests] and < 10 nM [sample B, mean of 2 tests] and the GI50 [36] was 6.23 nM [1 test] and 1.35 µM [mean of 2 tests]. The TGI [36] was 19 nM, 1.04 µM, 4.8 µM [sample A] and 1.09 µM [sample B], the GI50 [37] was 2.42 nM, 29.3 nM [1 test] and 45.1 nM [mean of 5 tests] and the TGI [37] was 6.54 nM, 53.1 nM [1 test] and 144 nM [mean of 5 tests]. For the same molecule, the GI50 [38] was 3.66 nM [sample A, 1 test] and 25.2 nM [sample A, mean of 2 tests] and 30 nM [sample A, mean of 5 tests] and < 10 nM [sample B, mean of 2 tests], the TGI [38] was 1.26 µM [sample A, mean of 2 tests] and 527 nM [sample A, mean of 5 tests] and < 27.5 nM [sample B, mean of 2 tests] and the GI50 [39] was 0.686 nM, 19.9 nM, 22.4 nM [sample A, 1 test] and < 10 nM [sample B, mean of 2 tests]. The TGI [39] was 1.02 µM, 11 µM [sample A, 1 test] and 13 µM [sample B, mean of 2 tests].
